{"source": "paper PMC4336329", "about": "(PLoS ONE, 2015)", "note": "About 2,200 (0.71%) of roughly 310,000 compounds showed an effect of 50% or more. The effect is printed as a negative number. This is one part of the list.", "data": [{"molecular_target": "human ether-à-go-go-related gene (hERG) potassium channel (human, UniProt Q12809)", "sequence (Q12809 whole entry, looked up)": "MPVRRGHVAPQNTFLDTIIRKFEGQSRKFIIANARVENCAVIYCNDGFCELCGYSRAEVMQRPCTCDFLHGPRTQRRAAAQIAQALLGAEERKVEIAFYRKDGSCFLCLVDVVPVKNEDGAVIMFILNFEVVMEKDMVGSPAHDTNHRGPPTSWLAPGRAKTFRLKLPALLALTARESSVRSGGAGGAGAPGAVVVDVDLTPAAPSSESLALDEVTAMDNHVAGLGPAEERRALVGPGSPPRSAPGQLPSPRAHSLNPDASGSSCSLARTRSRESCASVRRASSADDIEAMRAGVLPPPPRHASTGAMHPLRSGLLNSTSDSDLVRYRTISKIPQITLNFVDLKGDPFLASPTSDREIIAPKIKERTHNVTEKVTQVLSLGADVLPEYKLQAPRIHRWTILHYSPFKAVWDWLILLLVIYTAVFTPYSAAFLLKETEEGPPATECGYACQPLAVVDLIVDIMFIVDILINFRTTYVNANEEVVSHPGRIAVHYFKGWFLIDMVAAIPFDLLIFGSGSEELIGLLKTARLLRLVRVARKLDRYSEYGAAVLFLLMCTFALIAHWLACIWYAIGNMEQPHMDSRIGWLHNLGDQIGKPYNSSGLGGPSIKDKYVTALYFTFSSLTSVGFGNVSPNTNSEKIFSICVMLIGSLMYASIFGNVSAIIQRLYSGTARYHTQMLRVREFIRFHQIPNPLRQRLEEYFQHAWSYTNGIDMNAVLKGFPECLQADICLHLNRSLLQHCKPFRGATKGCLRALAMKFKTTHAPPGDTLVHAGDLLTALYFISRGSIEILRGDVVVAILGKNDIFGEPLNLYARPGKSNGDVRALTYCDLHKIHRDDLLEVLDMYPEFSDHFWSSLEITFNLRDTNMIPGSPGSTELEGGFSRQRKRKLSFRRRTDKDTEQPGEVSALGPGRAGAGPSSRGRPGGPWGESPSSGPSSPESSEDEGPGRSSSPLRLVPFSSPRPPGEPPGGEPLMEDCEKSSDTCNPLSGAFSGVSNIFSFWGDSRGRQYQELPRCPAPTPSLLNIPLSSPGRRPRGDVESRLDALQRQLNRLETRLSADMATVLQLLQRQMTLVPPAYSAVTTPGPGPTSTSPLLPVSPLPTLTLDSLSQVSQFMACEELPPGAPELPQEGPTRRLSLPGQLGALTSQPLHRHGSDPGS", "assay": "primary screen, population patch clamp on CHO cells stably expressing hERG", "units": {"hERG current change (%, negative = inhibition) at 1uM": "%"}, "values": [{"molecule": "O=C(CC(SCCO)c1ccc2c(c1)OCO2)c1cccs1", "note": "(stereo not shown)", "hERG current change (%, negative = inhibition) at 1uM": 1.04}, {"molecule": "COc1ccc(O)c(-c2cc(C(F)(F)C(F)F)nc(-c3ccccc3)n2)c1", "hERG current change (%, negative = inhibition) at 1uM": 11.1}, {"molecule": "O=C(C[n+]1cc(Br)cc(Br)c1)c1ccccc1.[Br-]", "hERG current change (%, negative = inhibition) at 1uM": 12.6}, {"molecule": "COc1cc(/C=C/C(=O)Nc2nc3ccc(S(=O)(=O)NC(C)C)cc3s2)cc(OC)c1OC", "hERG current change (%, negative = inhibition) at 1uM": 1.16}, {"molecule": "Cc1c(C(=O)OCC(=O)N2CCCC2)cccc1[N+](=O)[O-]", "hERG current change (%, negative = inhibition) at 1uM": 13.5}, {"molecule": "Cc1ccc(COc2ccccc2-c2cc(C(=O)N/N=C/c3cccnc3)[nH]n2)cc1", "hERG current change (%, negative = inhibition) at 1uM": 4.14}, {"molecule": "Cn1c(=O)c2c(ncn2CC(=O)OCC(=O)Nc2ccc(Cl)cc2Cl)n(C)c1=O", "hERG current change (%, negative = inhibition) at 1uM": 5.38}, {"molecule": "CSc1nc(-c2ccccc2)nn1C(=O)c1ccco1", "hERG current change (%, negative = inhibition) at 1uM": 10.5}, {"molecule": "COc1ccc(-c2nc(SC(CC(=O)NCCO)c3cccs3)n[nH]2)cc1", "note": "(stereo not shown)", "hERG current change (%, negative = inhibition) at 1uM": 6.37}, {"molecule": "O=C(O)c1cccc(N2C(=O)c3ccc(Oc4ccc(Cl)cc4)cc3C2=O)c1", "hERG current change (%, negative = inhibition) at 1uM": 6.59}, {"molecule": "Nc1cccc(P(=O)(c2ccccc2)c2ccccc2)c1", "hERG current change (%, negative = inhibition) at 1uM": 18.5}, {"molecule": "COC(=O)C1=C(C)N(CC(C)C)C(=O)/C1=C\\c1cccs1", "hERG current change (%, negative = inhibition) at 1uM": 8.55}, {"molecule": "O=C(CSc1n[nH]c(-c2ccccc2O)n1)NC1CCCCC1", "hERG current change (%, negative = inhibition) at 1uM": 9.54}, {"molecule": "O=C(COC(=O)c1ccc(F)cc1)Nc1nc2ccc([N+](=O)[O-])cc2s1", "hERG current change (%, negative = inhibition) at 1uM": 13.9}, {"molecule": "CCC(C(=O)N1CCC(N2CCCCC2)CC1)n1nc(C)c2sc3ccccc3c2c1=O", "note": "(stereo not shown)", "hERG current change (%, negative = inhibition) at 1uM": -1.42}, {"molecule": "COc1ccc(C(NC(=O)CN2CCCCCC2)c2ccc(OC)cc2)cc1", "hERG current change (%, negative = inhibition) at 1uM": -26.6}, {"molecule": "CN(C)CCCCCCCCCCC(=O)/C=N/O.Cl", "hERG current change (%, negative = inhibition) at 1uM": 7.17}, {"molecule": "Cc1ccc(C2=[N+]([O-])C3(CCCCC/C3=N\\NC(N)=O)N(O)C2(C)C)o1", "note": "(stereo not shown)", "hERG current change (%, negative = inhibition) at 1uM": 9.7}, {"molecule": "COc1ccc(C2Nc3ccccc3C(=O)N2c2ccc(F)cc2)cc1CSc1ccccn1", "note": "(stereo not shown)", "hERG current change (%, negative = inhibition) at 1uM": 5.88}, {"molecule": "C=C(C)c1cccc(C(C)(C)NC(=O)N2CC(C)OC(C)C2)c1", "note": "(stereo not shown)", "hERG current change (%, negative = inhibition) at 1uM": 8.52}, {"molecule": "CC1=NN(C(C#N)c2ccccc2O)C(C)(C)C1", "note": "(stereo not shown)", "hERG current change (%, negative = inhibition) at 1uM": 11.1}, {"molecule": "O=C(c1cc(-c2ccccc2)on1)N1CCN(Cc2ccc3c(c2)OCO3)CC1", "hERG current change (%, negative = inhibition) at 1uM": -27.1}, {"molecule": "COc1cc(C(=O)NCC(c2ccco2)N2CCOCC2)cc(OC)c1OC", "note": "(stereo not shown)", "hERG current change (%, negative = inhibition) at 1uM": 18.3}, {"molecule": "COc1cc(C(=O)Nc2ccc(Br)cc2C(=O)c2cc(OC)c(OC)c(OC)c2)cc(OC)c1OC", "hERG current change (%, negative = inhibition) at 1uM": 10.6}, {"molecule": "CCn1cc2nc(SCC(=O)Nc3ccc(F)cc3F)n(Cc3ccccc3)c(=O)c2n1", "hERG current change (%, negative = inhibition) at 1uM": 15.6}, {"molecule": "Cc1[nH]c(=O)[nH]c1C(=O)CCCCC(=O)O", "hERG current change (%, negative = inhibition) at 1uM": 3.63}, {"molecule": "Cc1cccc(C(=O)Oc2ccc(/C=N/NC(=O)c3ccccc3O)cc2)c1", "hERG current change (%, negative = inhibition) at 1uM": 9.11}, {"molecule": "Cc1cccc(NC(=O)CCNS(=O)(=O)c2cccc3nsnc23)c1C", "hERG current change (%, negative = inhibition) at 1uM": 15.4}, {"molecule": "COCCNC(=O)C1CC(c2ccccc2[N+](=O)[O-])=NO1", "note": "(stereo not shown)", "hERG current change (%, negative = inhibition) at 1uM": 18.3}, {"molecule": "O=C(c1ccc(S(=O)(=O)N2CCCCC2)cc1)N1CCN(c2ccccc2)CC1", "hERG current change (%, negative = inhibition) at 1uM": -2.7}, {"molecule": "O=C(Cn1nnc(-c2ccc(OCc3ccccc3F)cc2)n1)N1CCOCC1", "hERG current change (%, negative = inhibition) at 1uM": -0.681}, {"molecule": "CC(C)(C)NC(=O)CN(C(=O)CSc1nnc(COc2ccccc2)o1)c1cccc(F)c1", "hERG current change (%, negative = inhibition) at 1uM": 0.821}, {"molecule": "CNc1nc(OCC(F)(F)F)nc(N2CCOCC2)n1", "hERG current change (%, negative = inhibition) at 1uM": 12.8}, {"molecule": "CCCc1cc(C(=O)NCCc2ccc(OC)c(OC)c2)no1", "hERG current change (%, negative = inhibition) at 1uM": -2.06}, {"molecule": "O=C(COc1ncnc2cc(Cl)ccc12)c1ccccc1", "hERG current change (%, negative = inhibition) at 1uM": 17.1}, {"molecule": "CCOC(=O)c1sc(NC(=O)c2ccncc2)c(C#N)c1C", "hERG current change (%, negative = inhibition) at 1uM": 7.56}, {"molecule": "Cn1c(N)c(C(C[N+](=O)[O-])c2c(F)cccc2Cl)c(=O)n(C)c1=O", "note": "(stereo not shown)", "hERG current change (%, negative = inhibition) at 1uM": 9.57}, {"molecule": "O=C(CSc1ncnc2sc3c(c12)CCCC3)N1CCC(c2noc3ccc(F)cc23)CC1", "hERG current change (%, negative = inhibition) at 1uM": -5.7}, {"molecule": "Cc1cc(C)cc(N(CC(=O)NC2CCCC2)C(=O)CNC(=O)c2ccco2)c1", "hERG current change (%, negative = inhibition) at 1uM": 11.1}, {"molecule": "CCN(CC)CCCNC(=O)COc1ccc2oc3c(c2c1)CCCC3.Cl", "hERG current change (%, negative = inhibition) at 1uM": 6.07}, {"molecule": "COC(=O)c1ccc(C(=O)OC)c(NC(=S)N2CCN(c3ccccc3)CC2)c1", "hERG current change (%, negative = inhibition) at 1uM": 5.19}, {"molecule": "Cc1cc(C)cc(N(CC(=O)NCc2ccco2)C(=O)c2snc(C(N)=O)c2N)c1", "hERG current change (%, negative = inhibition) at 1uM": 8.65}, {"molecule": "CC[C@H](C)[C@H](NC(=O)CNC(=O)COc1cc2c(c3oc(=O)cc(C)c13)CCC(C)(C)O2)C(=O)O", "hERG current change (%, negative = inhibition) at 1uM": 14.2}]}]}
